# Laboratory results as given in article PMC5892938.
# The other results are listed elsewhere or left out. At the low end of the ranking, values are background and their order means little.
# Molecular target: GST-SBP-SLBP (stem-loop binding protein) (UniProt Q14493)
# Assay: targeted RNA Bind-n-Seq;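 also: DESeq read counts versus GST-SBP nonspecific binding control pulldown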
# Conditions: RBNS binding buffer: 25 mM Tris pH 7.5, 150 mM KCl, 3 mM MgCl2, 0.1% Tween, 0.5 mg/mL BSA, 1 mM DTT; 27 nM protein, 750 pM RNA pool; temperature not stated; high values mean tight binding
row,Sequence,binding signal (log2 fold change)
1,GGUCACGUCUCAAUCAACUCUAUCUCCAGGGAAAACCCUGGUAAUCUCAACAGCUCGCAGUCAAG,0.0452
2,GGUCACGUCUCAAUCAACUCUAGUCCCAGGGAAAUCCCUGGCUUAUUCAACAGCUCGCAGUCAAG,-0.0879
3,GGUCACGUCUCAAUCAACUCAUCCUCAGGAGUUUCCUCCUGCAAAUUCAACAGCUCGCAGUCAAG,0.164
4,GGUCACGUCUCAAUCAACUCUUUCUCAGGAGUUUUCUCCUGUAAUGUCAACAGCUCGCAGUCAAG,0.0078
5,GGUCACGUCUCAAUCAACUCAUCCCCAGGAGUUUGCUCCUGUAUUUUCAACAGCUCGCAGUCAAG,0.125
6,GGUCACGUCUCAAUCAACUCUAUUCCCAGGGAAAGCCCUGGCUAAUUCAACAGCUCGCAGUCAAG,-0.0162
7,GGUCACGUCUCAAUCAACUCUAAGGAGGGGGGGAAAACCCCUUUACCCUCAAUCUCAACAGCUCGCAGUCAAG,0.0956
8,GGUCACGUCUCAAUCAACUCUUCCUCCAGGGAAAGCCCUGGUUAUGUCAACAGCUCGCAGUCAAG,0.178
9,GGUCACGUCUCAAUCAACUCUAUUUCAGGAGUUUCCUCCUGCUUACUCAACAGCUCGCAGUCAAG,0.00983
10,GGUCACGUCUCAAUCAACUCUAUCUCAGGAGUUUACUCCUGUAAUCUCAACAGCUCGCAGUCAAG,0.104
11,GGUCACGUCUCAAUCAACUCUAUCUCCAGGGAAAUCCCUGGUUAUCUCAACAGCUCGCAGUCAAG,0.0996
12,GGUCACGUCUCAAUCAACUCUAUUCCAGGAGUUUACUCCUGUUAAUUCAACAGCUCGCAGUCAAG,0.164
13,GGUCACGUCUCAAUCAACUCUAUCCCAGGAGUUUUCUCCUGUAAUCUCAACAGCUCGCAGUCAAG,-0.00916
14,GGUCACGUCUCAAUCAACUCAUCCUCAGGAGUUUACUCCUGCUUUUUCAACAGCUCGCAGUCAAG,0.0763
15,GGUCACGUCUCAAUCAACUCUUCCUCCAGGGAAAGCCCUGGUAAACUCAACAGCUCGCAGUCAAG,0.0116
16,GGUCACGUCUCAAUCAACUCUUCGUCAGGAGUUUCCUCCUGUAUAUUCAACAGCUCGCAGUCAAG,-0.0332
17,GGUCACGUCUCAAUCAACUCUCAGGAGGGGGGGAAAACCCCUUUACCCUCAUCAUCAACAGCUCGCAGUCAAG,-0.123
18,GGUCACGUCUCAAUCAACUCUAUAGAGGGGGGGAAAACCCCUUUGCCCUCGAAUUCAACAGCUCGCAGUCAAG,0.377
19,GGUCACGUCUCAAUCAACUCUAGUCCAGGAGUUUCCUCCUGUAAAUUCAACAGCUCGCAGUCAAG,-0.122

row,Sequence,binding signal (log2 fold change)
1,GGUCACGUCUCAAUCAACUCAUAAGAGGGGGGGAAAACCCCUUUACCCUCCCAAUCAACAGCUCGCAGUCAAG,-0.373
2,GGUCACGUCUCAAUCAACUCAAUCUCAGGAGUUUGCUCCUGCUAAUUCAACAGCUCGCAGUCAAG,-0.0965
3,GGUCACGUCUCAAUCAACUCAUCGCCAGGAGUUUGCUCCUGCUAAUUCAACAGCUCGCAGUCAAG,-0.0701
4,GGUCACGUCUCAAUCAACUCUAUUUCCAGGGAAACCCCUGGCAUAUUCAACAGCUCGCAGUCAAG,-0.031
5,GGUCACGUCUCAAUCAACUCUUUCUCCAGGGAAAGCCCUGGCAUGUUCAACAGCUCGCAGUCAAG,0.18
6,GGUCACGUCUCAAUCAACUCUUCUCCAGGAGUUUUCUCCUGUUAAUUCAACAGCUCGCAGUCAAG,-0.122
7,GGUCACGUCUCAAUCAACUCUACUUCCAGGGAAAGCCCUGGCUUACUCAACAGCUCGCAGUCAAG,-0.0517
8,GGUCACGUCUCAAUCAACUCAAUCGCAGGAGUUUUCUCCUGGUUAUUCAACAGCUCGCAGUCAAG,0.00922
9,GGUCACGUCUCAAUCAACUCUUUUCCCAGGGAAAGCCCUGGCAAAUUCAACAGCUCGCAGUCAAG,0.0585
10,GGUCACGUCUCAAUCAACUCACUAGAGGGGGGGAAAACCCCUUUGCCCUCAUCCUCAACAGCUCGCAGUCAAG,0.0248
11,GGUCACGUCUCAAUCAACUCAAUUUCAGGAGUUUGCUCCUGCUUUUUCAACAGCUCGCAGUCAAG,0.191
12,GGUCACGUCUCAAUCAACUCAACUCCAGGAGUUUCCUCCUGUAAAUUCAACAGCUCGCAGUCAAG,0.18
13,GGUCACGUCUCAAUCAACUCUUCUCCCAGGGAAAACCCUGGCUUUUUCAACAGCUCGCAGUCAAG,0.105
14,GGUCACGUCUCAAUCAACUCGUUUUCAGGAGUUUUCUCCUGCAUUCUCAACAGCUCGCAGUCAAG,0.0191
15,GGUCACGUCUCAAUCAACUCCUCAGAGGGGGGGAAAACCCCUUUGCCCUCAAUCUCAACAGCUCGCAGUCAAG,-0.298
16,GGUCACGUCUCAAUCAACUCUUUCUCAGGAGUUUCCUCCUGUUAUUUCAACAGCUCGCAGUCAAG,0.158
17,GGUCACGUCUCAAUCAACUCAAUCUCCAGGGAAAGCCCUGGUAAUCUCAACAGCUCGCAGUCAAG,0.0646
18,GGUCACGUCUCAAUCAACUCUCAAGAGGGGGGGAAAACCCCUUUGCCCUCAAACUCAACAGCUCGCAGUCAAG,-0.197
